The full ranking holds about 33,000 sequences; the median of “E-score (-0.5 to 0.5)” is about -0.016, and the highest 2% start at about 0.31. This is one part of the list.
Each sequence was assayed against Cst6 (UniProt P40535) (assay: PBM E-score (8-mer binding enrichment) (E-score (-0.5 to 0.5)); higher = stronger / more preferred TF binding; most listed sequences are background and not binding sites). Conditions: protein concentration: 200 nM; construct: GST-DNA-binding domain.
Procedure, shortened: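 Bound GST-tagged yeast transcription factors, applied at about 100-200 nM to double-stranded universal all-10-mer Agilent arrays, were detected with fluorescent anti-GST. Scans were normalised with masliner. A modified Wilcoxon-Mann-Whitney statistic, the E-score, was assigned to each ungapped eight-base word pooled with its reverse complement by the Universal PBM Analysis Suite.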

Sequence	PBM E-score
AAAAAACT	0.14
GATACATC	0.126
ATGTTGGA	0.143
GCTTTCCA	0.0531
GGTTTTCA	0.132
ATAATGCC	0.167
TACTCTGA	0.0538
CATTTCCC	0.136
CGTCCTAA	-0.17
GCGTGCAC	-0.0584
CGCGTTAC	0.063
GACCTAGA	-0.094
CATAACGG	-0.00203
GTTAAAAC	-0.0213
TTCTAAAA	0.161
GCACGAAC	0.111
GGAATCAC	0.0293
CCATCTAA	0.0382
AGAGCACG	0.00533
AACACTAA	0.104
AACAACTG	0.0881
GGAAATGA	0.195
GATAAGGA	0.0441
AATCACGT	0.296
CGCTAGCA	-0.169

Sequence	PBM E-score
ATGTCGGG	0.038
CAGATCGA	-0.0884
AGGCCGAG	-0.16
TGGCTGAA	-0.0764
ACCACCTA	-0.169
CACTGAAC	0.028
ACGCGGTC	-0.0683
ATCCCTAG	-0.0881
CTGACGCC	0.119
CTGCCCCC	-0.303
AAAGGTAG	-0.0954
ACTCATAA	0.0843
CTCTAAAG	-0.0822
AGCTCATG	-0.0133
ACGCAACC	0.187
AAGGGCAC	0.0638
GCATTGCA	0.0618
CGGAGTCC	-0.111
CGCGGCTA	0.274
CATAAATA	0.154
CGGTGTAC	-0.129
CTGAAAAC	0.0944
ATACTGAC	0.142
TCGAACGA	0.101
GAGGTATC	-0.141

Sequence	PBM E-score
CCAAATAG	-0.0451
CCCACGAG	-0.326
ACGTGGAG	-0.0857
AGACTGTC	-0.204
CCGGCTAC	-0.0159
ATGCCCTA	-0.0628
CCTCTTCG	-0.184
CTTGCCTC	-0.158
GCGATGGA	0.00934
AGTATATA	0.348
CGCCCCAC	-0.017
AGGACTCC	-0.357
AGCTTGCC	-0.0982
AACGAGCC	0.0634
CCACTAGA	-0.149
GTTAGGCA	-0.0663
CGCAATCC	0.107
AATTACTC	0.236
ACTGTCAG	-0.0286
ACCGTGTG	-0.0447
GAGGTCTA	-0.122
ACTCCTTC	-0.234
AGCTAGAG	-0.179
CGGCTTTC	0.133
ACCCCTCT	-0.279

Sequence	PBM E-score
CGGGTCGA	-0.304
ACATGTGC	-0.012
ACGGATTG	0.0767
GATGCTGC	-0.256
AAAGGGTG	0.0199
CCTACCGA	-0.172
GACCTCTC	-0.183
CTCGGAAG	-0.117
AACTACCG	-0.0487
CTAGAGAC	-0.289
GGGGTTGA	-0.0938
GATAAACC	0.137
AACATCGT	-0.0624
CGTTGGCA	-0.112
ATCAGTAC	0.086
ACGGGCAA	-0.0753
CAGACCCG	-0.236
CTACTATC	0.143
CAATTCAG	-0.0484
GTCTAAAC	0.0407
TTCGTCAA	0.183
AAGAACGT	0.191
CCCCATGC	-0.165
AGGTAAGA	0.146
CTAGCGAG	-0.182

Sequence	PBM E-score
ATCAACAT	0.275
CCAGTCCC	-0.286
TGCCTCCA	-0.325
CAGCGTGC	-0.0501
ATTTTCAC	0.159
AACCAATG	0.106
AATTATAG	0.193
GCGTATGA	0.265
AAGCCAAC	-0.0536
ACAGGAAT	-0.0899
GCGGCTAA	0.128
GACCAGGA	-0.292
TGGGTGAA	0.223
CACCTGAG	-0.125
CGAATATC	0.0376
AGGATAAG	-0.198
TTCATCAA	0.151
TATTCTAA	0.161
TAGCATGA	0.134
CGATCGAC	0.0634
ATTCAATA	0.246
GAATGACC	0.0547
ACGCCTAC	-0.167
AATAGTTA	0.16
CCTTCCGC	-0.259

Sequence	PBM E-score
CCTCCAAG	-0.133
ACCGTTAT	0.0799
ACTCATCA	0.00088
AATCGATA	0.113
AGGCACCA	0.149
AGAGCCCG	-0.132
ATTAACAA	0.3
GAACACCA	-0.0599
TCGATAGA	-0.019
TCGTTAAA	0.062
CACATCTC	0.0868
TCATCAAA	0.248
ACCCATCC	-0.143
GAGCAATA	-0.133
AGCACTTC	0.0406
AAGTGGGG	-0.248
CATTAGTA	0.143
CACGACGA	-0.0627
ATCCGTTC	0.0694
AACGGTGA	0.0858
AATACAAT	0.222
CAAAACGA	0.0891
ATGAGATC	0.157
CAAATTAA	0.224
AAGTGGAG	-0.052

Sequence	PBM E-score
TAAACAGA	0.0948
ATCACCTA	0.0446
CTCAAGCA	-0.0615
AATCATGC	0.0631
CATTCTGC	0.0305
GAGGATCC	-0.162
GTCTCGTA	-0.0486
ACACATGC	-0.0255
AACTCAGA	0.0684
AAAATGCA	-0.113
CCTTTCCG	-0.122
CTTCACGC	0.114
CACAGTGC	-0.024
ATCCACTA	-0.0271
CTCCCGAA	-0.122
AGCAGTAT	-0.0639
GGGGAGAC	-0.368
AACGTATT	0.197
CAGCTAAA	0.0189
CAACATGA	0.175
GCCTTTCC	0.123
GCATATCA	0.133
GCGTTAAA	-0.0116
AAACCAAT	0.135
GGAAACCC	-0.147

Sequence	PBM E-score
CTTAAAGC	-0.00117
CCACTGGA	-0.0966
ATCCTGAG	-0.00052
ATGTGCCA	-0.0277
CCTATCCC	-0.00694
AATTACAG	0.15
AAATTTTA	0.244
GCGCCACA	0.0597
AGACGCCC	-0.114
CCAAAATC	0.0704
AACGTGAT	0.122
CCGATTGA	6e-05
CCATGGCG	0.102
AAGGTGAA	0.00299
AGTCAAGA	-0.0402
ATTTGCTA	0.156
AAAATTTT	0.143
AACCGTAG	-0.21
GTAGAAAC	0.158
CGAACCAA	0.0603
AAAGTTCG	0.19
GGACTTAA	-0.256
AAAATCAC	0.207
CCCGCGAG	-0.188
CACACTGC	-0.0758

Sequence	PBM E-score
CAGTTCCA	-0.131
AGTCCTAT	-0.186
CCTCAACA	0.265
CGCTCAAG	-0.0893
TCCCAACA	0.0906
CGAAGCAA	-0.0077
ACCCAGTC	-0.192
GCAGACTA	-0.158
CATGTTCG	-0.115
GGGATGGA	-0.119
TAACGTGA	0.284
CCGAAAGC	-0.322
CGTCCCTC	-0.0115
CCGTTTCC	-0.169
AAGTGGCT	0.069
AAGTAGTC	0.0484
CAAGGCCG	-0.142
TCAGAGGA	-0.193
CGCTGCAG	-0.238

— the supplement of paper PMC3334620
